Measured values taken from PubChem BioAssay AID651820 (National Center for Advancing Translational Sciences (NCATS), 2012).
“And” between values parts separate entries of the source, which are not always exact repeats. Equal entries are not always repeated. In all, about 340,000 compounds went through this assay and about 12,000 (3.5%) were called active. Inconclusive results, whose numbers are uncertain, are shown with a selection of clear calls. Calls come from the whole dose curve; as a rule, active = well fitted inhibition curve with a large enough effect; inconclusive = small, poorly fitted or top-dose-only effect, or another doubt; inactive = no such curve, though single readings can be large or run the other way. Where the call is inconclusive, the potency comes from a doubtful curve fit.

Test: qHTS Assay for Inhibitors of Hepatitis C Virus (HCV)
Conditions: Huh7.5.1 HCVcc-Cre (HCVcc is cell-culture hepatitis C virus) infection, luciferase reporter, 44 h; activity change, negative = inhibition: at 41.8 µM (top of the series) unless noted
In short: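 Seed cells (1,000/well) for 4 h; treat with compound and infect with HCVcc-Cre, moi about 0.5. Incubate 44 h, then detect luciferase activity.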
% is set by controls: 0 for no effect and ±100 for the full control effect; potency is the fitted concentration of half-maximal effect; tags give direction and shape of the fitted curve.

Compound	Potency	activity change, negative = inhibition
COc1cc2c(C(=O)NCc3ccc4c(c3)OCO4)cn(C)c(=O)c2cc1OC	inconclusive: 8.91 µM [inhibitor, partial curve]	–
Cc1cc(C)n(-c2ccc(C(=O)Nc3ccc(S(=O)(=O)N(C)C)cc3)cc2)n1	inconclusive: 14.1 µM [inhibitor, partial curve, poor fit]	–
CCCCc1ccc(S(=O)(=O)NC2CCS(=O)(=O)C2)cc1 (centres undefined)	inconclusive: 11.2 µM [inhibitor, partial curve]	–
CCOC(=O)C1CCN(CC(=O)Nc2ccc(S(=O)(=O)N3CCC(C)CC3)cc2)CC1	inconclusive: 31.6 µM [inhibitor, single point]	–
CCN(CC)c1nc(-c2ccccc2)ncc1S(=O)(=O)c1ccc(C)cc1	active: 7.08 µM	–
COc1ccc2[nH]cc(CCNC(=O)Cc3ccc(Cl)cc3)c2c1	inconclusive: 22.4 µM [inhibitor, partial curve]	–
CCOC(=O)C1CCN(C(=O)/C=C/c2cc(OC)c(OC)c(OC)c2)CC1	inconclusive: 3.16 µM [inhibitor, full curve]	–
CN(Cc1ccc(OC(F)F)cc1)C(=O)c1ccc2c(=O)n3c(nc2c1)CCC3	inconclusive: 35.5 µM [inhibitor, partial curve, poor fit]	–
Cc1nn(-c2cc(N3CCCC3)ccc2[N+](=O)[O-])c(=O)c2ccccc12	inconclusive: 14.1 µM [inhibitor, single point]	–
COc1ccc(CNC(=O)COC(=O)CCc2c[nH]c3ccccc23)cc1	inconclusive: 5.62 µM [inhibitor, single point]	–
Cc1ccc(C(c2nnnn2CCC(C)C)N2CCN(C)CC2)cc1 (centres undefined)	inconclusive: 10 µM [inhibitor, partial curve] and inconclusive: 1 µM [inhibitor, full curve]	–
CC(C)=CCC/C(C)=C/CNC(=O)C[C@H]1C[C@H](C(=O)N2CCOCC2)[C@@]2(C)c3[nH]c4cc(-c5ccco5)ccc4c3CCN2C1=O	inconclusive: 22.4 µM [inhibitor, single point]	–
CCOc1cc(C(=O)OCC(=O)Nc2cccc(S(=O)(=O)NC3=NCCCCC3)c2)cc(OCC)c1OCC	inconclusive: 0.501 µM [inhibitor, full curve, poor fit]	–
CNc1nc(-c2ccccc2)nnc1C(F)(F)F	inactive	–
O=C(CNCc1ccccc1)NCCCN1CCCC1=O	inactive	–
CN(c1ccccc1)S(=O)(=O)c1cccc(NC(=O)c2cncc(Br)c2)c1	inconclusive: 22.4 µM [inhibitor, single point]	–
N=c1c(C(=O)NC2CCCC2)cc2c(=O)n3ccccc3nc2n1CCCN1CCOCC1	inconclusive: 31.6 µM [inhibitor, single point]	–
CCN(CC)c1ccc(NC(=O)C2CC(=O)N(Cc3ccccc3)C2)cc1 (centres undefined)	inconclusive: 8.91 µM [inhibitor, single point]	–
COc1ccccc1NC(=O)CSc1nc2n[nH]c(C)c2c(=N)n1-c1ccccc1Cl	active: 11.2 µM	–
C/C(=N\OCC(=O)OCC(=O)N(C)c1ccccc1)c1ccc2c(c1)OCO2	inactive	–
O=C(C1COc2ccccc2O1)N1CCN(c2nc3c(F)cc(F)cc3s2)CC1 (centres undefined)	inactive	–
NC(=O)c1ccc(NC(=O)CNC(c2ccccc2)c2ccccc2)cc1	inactive	–
O=S(=O)(c1cccc(COc2c(Cl)cccc2Cl)c1)N1CCOCC1	inconclusive: 7.94 µM [inhibitor, partial curve]	–

Compound	Potency	activity change, negative = inhibition
COc1cccc(/C=N/Nc2ncnc3scc(-c4ccccc4)c23)c1OC	inconclusive: 11.2 µM [inhibitor, single point]	–
O=C(NCCCC(NC(=O)OCc1ccccc1)C(=O)O)OCc1ccccc1 (centres undefined)	inactive	–
Cc1ccc(S(=O)(=O)N2CCN(S(=O)(=O)c3ccccc3)C2c2ccc(N(C)C)cc2)cc1 (centres undefined)	inconclusive: 10 µM [inhibitor, partial curve]	–
COc1cccc(/C=C2/Sc3ccc(C(=O)NCCN4CCCCCC4)cc3NC2=O)c1	active: 5.62 µM	–
O=C(Nc1cccc(S(=O)(=O)N2CCOCC2)c1)c1ccc2c(=O)n3c(nc2c1)CCCCC3	active: 7.08 µM	–
CC/C(O)=C1\C(=O)CC(C)(C)CC1=NCCc1nc2ccccc2[nH]1	inconclusive: 10 µM [inhibitor, partial curve]	–
C=CC[C@H](CC(=O)N(CCO)Cc1ccccc1)C(=O)N[C@H](C)COC(=O)[C@@H](CC=C)Cc1ccc(F)cc1	inconclusive: 2.82 µM [inhibitor, partial curve]	–
N#Cc1ccccc1OCC(=O)NCc1ccccc1CN1CCCC1	inconclusive: 2 µM [inhibitor, partial curve]	–
Cc1ccccc1-n1nnnc1SCC(C)C	inconclusive: 5.62 µM [inhibitor, single point]	–
O=C(c1[nH]ncc1-c1ccc(Cl)cc1)C1CO1 (centres undefined)	–	inconclusive: -65.3% [inhibitor]
CN=c1scc(-c2ccc(F)cc2)n1/N=C/c1ccc(O)c(O)c1	active: 2.24 µM	–
CO/N=C/NC(=O)Cc1cn(-c2ncc(C(F)(F)F)cc2Cl)c2ccccc12	inconclusive: 10 µM [inhibitor, partial curve]	–
CCOCCCNC(=S)N1CCC(NC(=O)c2ccco2)CC1	inactive	–
CC(=O)NC(CC(=O)NC12CC3CC(CC(C3)C1)C2)c1ccccc1 (centres undefined)	inconclusive: 5.62 µM [inhibitor, single point]	–
O=C(O)c1ccc2c(c1)C(=O)N(c1cccc(S(=O)(=O)Nc3cccc(C(F)(F)F)c3)c1)C2=O	inactive	–
O=C(Nc1nc2ccccc2s1)C1CCCN1S(=O)(=O)c1ccc(Cl)cc1 (centres undefined)	inconclusive: 12.6 µM [inhibitor, single point]	–
COc1ccc(-c2nc(Cn3c(SCc4ccc(C)cc4)nc4ccncc43)c(C)o2)cc1OC	inconclusive: 11.2 µM [inhibitor, single point]	–
CN(C)c1nc(-c2ccc([N+](=O)[O-])cc2)cs1	inconclusive: 31.6 µM [inhibitor, single point]	–
COc1ccc(C(=O)c2ccccc2)c(O)c1	inactive	–
O=C(Nc1ccc2c(c1)Cc1ccccc1-2)c1cccnc1	active: 6.31 µM	–
C=CCn1c(/N=C/c2ccc(OC)cc2)nc2ccccc21	inactive	–
COc1cccc(F)c1C(=O)NC(=O)Nc1ccc2nc(C)oc2c1	inactive	–
CCOC(=O)C1CCCN(S(=O)(=O)c2cnc(Cl)c(Br)c2)C1 (centres undefined)	inconclusive: 31.6 µM [inhibitor, single point]	–

Compound	Potency	activity change, negative = inhibition
COc1cccc(/C=C2\CCC(C3CCCC3)C2=O)c1OC (centres undefined)	inactive	–
C[C@@]12C(=O)N(c3ccccc3)C(=O)N1[C@@H]1c3ccccc3OC[C@@H]1[C@H]2c1ccccc1	inconclusive: 11.2 µM [inhibitor, partial curve]	–
O=C(N/N=C/c1ccc(O)c(O)c1)c1ccc(-n2cnnn2)cc1	inconclusive: 22.4 µM [inhibitor, partial curve, poor fit]	–
Cc1sc2ncnc(NCCN3CCOCC3)c2c1C	active: 11.2 µM	–
O=C(C[n+]1cccc(Br)c1)c1ccc(-c2ccccc2)cc1	inconclusive: 10 µM [inhibitor, partial curve]	–
Cc1nc(-c2ccc3c(c2)OCCCO3)cs1	inactive	–
COc1ccc(NC(=O)c2ccco2)c(NC(=O)c2ccc([N+](=O)[O-])cc2)c1	inactive	–
Cc1sc2ncnc(N3CCN(CCOc4ccc(Cl)cc4)CC3)c2c1C	active: 10 µM	–
CCN(CC)CCn1c(=S)[nH]c2cc(C(=O)NCc3ccccc3Cl)ccc2c1=O	inconclusive: 8.91 µM [inhibitor, partial curve]	–
CCCNC(=O)c1cc2cc([N+](=O)[O-])ccc2s1	inconclusive: 31.6 µM [inhibitor, single point]	–
CC(=O)c1sc(Nc2nc3cc4c(cc3s2)OCO4)nc1C	inconclusive: 31.6 µM [inhibitor, single point]	–
CCOC(=O)c1ccc(OS(=O)(=O)c2ccccc2)c(OC)c1	inconclusive: 31.6 µM [inhibitor, single point]	–
COc1ccc(NCc2nnc(-c3ccccc3)o2)cc1	inconclusive: 31.6 µM [inhibitor, single point]	–
CCN1CCN(c2nc(C)nc3c2sc(=S)n3C)CC1	inconclusive: 11.2 µM [inhibitor, partial curve]	–
Cc1[nH]c2ccc(F)cc2c1CCNC(=O)C1CCCCC1C(=O)OCC(F)(F)F (centres undefined)	inconclusive: 10 µM [inhibitor, partial curve, poor fit]	–
Cc1ncc(N=Nc2ccccc2Cl)c(-c2ccccc2)n1	inactive	–
Cc1ccc(-c2cc(C(=O)NCc3ccco3)c3ccccc3n2)s1	inconclusive: 20 µM [inhibitor, single point]	–
Nc1cc(Cl)ccc1N1CCOCC1	inactive	–
CCc1ccc(CN2CCC(n3nccc3NC(=O)c3cccc(F)c3)CC2)cc1	inconclusive: 31.6 µM [inhibitor, single point]	–
Cc1ccc(NC(=O)c2c3c(nc4ccccc24)CCC3)cc1S(=O)(=O)N(C)C	inconclusive: 11.2 µM [inhibitor, single point]	–
O=c1[nH]nc(-c2ccc(F)cc2)cc1Cc1ccc(F)cc1	inactive	–
Cc1ccc(S(=O)(=O)N2CCCCC2)cc1NC(=O)CNc1ccc(C(F)(F)F)cc1	inconclusive: 10 µM [inhibitor, partial curve]	–
Cc1ccc(-c2ccc(=O)n(CC(=O)NCCCN3CCCCC3C)n2)cc1 (centres undefined)	inconclusive: 31.6 µM [inhibitor, single point]	–
